# Measurements as given in the supplement of paper PMC3334620.
# Over roughly 33,000 sequences, “E-score (-0.5 to 0.5)” has its median near -0.036; the highest 2% begin near 0.37. The list shows a part of the results.
# Biological target: T1, Yer064c (UniProt P40041)
# T1 sequence: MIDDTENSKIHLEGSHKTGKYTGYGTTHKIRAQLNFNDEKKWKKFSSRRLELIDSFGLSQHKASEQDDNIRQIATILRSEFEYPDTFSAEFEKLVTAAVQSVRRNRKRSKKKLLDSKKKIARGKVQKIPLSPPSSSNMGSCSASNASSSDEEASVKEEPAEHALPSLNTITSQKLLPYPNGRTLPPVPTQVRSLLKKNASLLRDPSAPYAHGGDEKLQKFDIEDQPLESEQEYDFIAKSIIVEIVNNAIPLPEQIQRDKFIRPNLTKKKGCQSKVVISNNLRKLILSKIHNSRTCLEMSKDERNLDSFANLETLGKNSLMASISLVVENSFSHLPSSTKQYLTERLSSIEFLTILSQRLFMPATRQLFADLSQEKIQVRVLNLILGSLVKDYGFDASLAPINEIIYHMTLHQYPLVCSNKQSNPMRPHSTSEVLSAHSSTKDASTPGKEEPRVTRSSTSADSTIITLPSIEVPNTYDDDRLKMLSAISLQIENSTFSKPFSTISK
# Assay: PBM E-score (8-mer binding enrichment) (E-score (-0.5 to 0.5)); higher = stronger / more preferred TF binding; most listed sequences are background and not binding sites
# Conditions: protein concentration: 200 nM; construct: GST-full length
# Procedure, shortened: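 Universal all-10-mer Agilent arrays, double-stranded by primer extension on fresh or once-stripped slides, were probed with about 100-200 nM GST-tagged yeast transcription factors made by PURExpress. Fluorescent anti-GST detected bound protein, and masliner normalised the scans. E-scores from the Universal PBM Analysis Suite were given to each ungapped eight-base word pooled with its reverse complement.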
row,Sequence,PBM E-score
1,GCATGACA,0.0053
2,GGAGACCC,-0.16
3,GATTGCCA,0.0112
4,CTGCGTTA,0.0866
5,AACCAAAT,0.1
6,ATCCACAG,-0.0767
7,ATTATGAG,0.23
8,AGTAGGGG,-0.22
9,AGTCTTCA,0.408
10,AACGAGGC,-0.262
11,AAAGTTGT,-0.0817
12,GAGCAACC,0.0134
13,GGCTGTGA,0.0418
14,CGAACGGC,-0.0963
15,ATTAGACG,0.0361
16,ATTGAATA,0.169
17,AGTACAAC,0.177
18,CACTAGGG,-0.189
19,GGACACAC,-0.0288
20,CGAGCGCG,-0.127
21,ACTCAGGG,0.311
22,CCTAGTTC,-0.208
23,AAGTATAG,-0.187
24,CAATGCGG,-0.111
25,AGCTACCT,-0.0961

row,Sequence,PBM E-score
1,TCTGGGAA,0.121
2,ACTCGTCG,0.204
3,TATTTTCA,-0.0316
4,ATTGCGAG,0.0622
5,AATCGACA,0.0126
6,ATGTCATA,0.013
7,CACACCAA,0.0298
8,GCCACCAA,-0.0957
9,AGCTTTTG,0.0281
10,TCGTCGAA,0.122
11,CTGCTCCA,-0.161
12,GTTCTAGA,0.009
13,AATTACGA,0.101
14,CCTTGACG,-0.196
15,GAGTCTTA,0.453
16,GGTCTCCA,-0.222
17,AGCCGCGC,-0.141
18,CCATGACC,-0.0318
19,AGAGCGTG,-0.154
20,CTTATCTA,-0.00823
21,ATGCGAAA,0.111
22,CACAAGGG,-0.265
23,AGGTGGCC,-0.306
24,ATAAGTAG,0.0508
25,AGTGGGAC,-0.131

row,Sequence,PBM E-score
1,ACACAGGT,0.0662
2,AATGAAGA,0.158
3,AGATGCCA,-0.0598
4,CCTTCCAG,-0.19
5,GGCCCGCA,-0.141
6,GATCCGAA,-0.156
7,AGAGGTAA,0.0179
8,TATGATCA,0.263
9,ATGGAACA,-0.0445
10,AGGGAAAC,-0.00906
11,CGTTAAAC,-0.0127
12,CACTAAAA,0.02
13,CCCTTAGC,-0.247
14,AGGATCTA,-0.0917
15,ATTACGGA,0.063
16,GGAAAAGA,0.0203
17,GGCCGCAC,-0.22
18,AATCCCGT,-0.00352
19,GATGTAAA,-0.0141
20,TCGTAACA,0.0775
21,GCCGCGCA,-0.201
22,ACTCAGGA,0.26
23,AAAACGTG,-0.00995
24,GCGGTAAC,0.0239
25,AAGATCGG,-0.188

row,Sequence,PBM E-score
1,CTCCTTGC,-0.0729
2,GGCCGAAA,0.104
3,AACGAAGA,0.127
4,AAACGGTC,-0.191
5,CCTATGGC,-0.149
6,AGAATGGG,-0.117
7,GGCAGTGA,0.0347
8,GCGTACGC,-0.144
9,ACTTTCGA,0.113
10,AAAAGTTA,0.0954
11,AATCGGCA,0.00862
12,CAAAAGAG,0.0455
13,CTCACTGA,0.202
14,GGGCAGAC,-0.227
15,CACCGGCC,-0.113
16,CGATGGAC,-0.0384
17,AATTCAAC,-0.0608
18,ACTATCCG,0.182
19,GACTACGC,0.391
20,CTCCGGAA,-0.109
21,ATATTTGG,0.036
22,CCTACAGG,-0.104
23,CCAGCCCG,-0.178
24,TCTTTCCA,-0.137
25,ATAACAAG,0.00051

row,Sequence,PBM E-score
1,AAAGGTAA,0.112
2,CTACCTAC,-0.0346
3,CACAGGTA,-0.129
4,GGGGTCAC,0.0345
5,AACTACTT,0.147
6,CAAGCGGG,-0.149
7,CAACGAAC,0.0998
8,AGAGGAGA,-0.00359
9,AGAAATTA,0.22
10,CTGCCGGC,-0.0737
11,GTGGAACA,-0.124
12,GAAACAGA,-0.142
13,TACCCACA,0.206
14,TCTCCCCA,-0.153
15,CAATAACC,0.183
16,GGCCGGTA,-0.113
17,TAAGGGTA,0.0278
18,ATGCCGGA,-0.175
19,CCTTATAG,0.0275
20,ACCCTTCA,-0.15
21,ACTAAGCC,0.235
22,CCATATCG,0.212
23,TAGATTGA,0.0941
24,ATGCAATC,-0.0742
25,AAGGCGCG,-0.328

row,Sequence,PBM E-score
1,ATTCCAAT,-0.025
2,AAACCCGC,-0.259
3,CTTCTTTA,-0.12
4,CACACGAA,0.0255
5,CGTATGAA,0.0601
6,ATGGACTA,0.292
7,ACCAGAAG,-0.0698
8,ACAGACTA,0.0746
9,ATACCTTC,-0.283
10,TGGTTACA,0.118
11,ACCTTCAG,-0.0407
12,GTAAATTA,-0.0771
13,CAGGCCGC,-0.0586
14,CCGGCTCA,-0.114
15,ATGCCGAG,-0.0321
16,ATTACGCC,0.133
17,ATGGCTTC,0.156
18,ACTGAGAC,0.338
19,CTGCGAGC,0.112
20,AAATATCC,0.0261
21,ACGCCGAC,0.163
22,TCGGTTAA,0.182
23,CGGGTGGA,-0.183
24,AACCGAAT,-0.0662
25,ATCTGTCA,-0.051

row,Sequence,PBM E-score
1,GCAAGTAA,-0.0247
2,CTCGATTC,0.0969
3,GTGTGGCA,-0.261
4,ATCTTCAG,0.188
5,ATTTCCGG,-0.0322
6,AAATTGGT,-0.11
7,ACGTGGGC,-0.165
8,GCAGGCTA,-0.118
9,CTGCCGGA,0.0297
10,CACCTTGG,-0.142
11,AGTCAAAA,0.408
12,CTTCAGGA,0.00919
13,CCAGCATA,-0.151
14,ACACTTCA,-0.0543
15,CCTGATAG,-0.2
16,ATCGGTCC,-0.188
17,GTCTCGGA,-0.0996
18,AGGCTTGC,-0.191
19,AGAGCTCG,-0.222
20,TATGCACA,0.133
21,CCCCCCTA,-0.277
22,CGCATATA,-0.182
